Measurements published in the RNAGym collection of RNA variant scans (doi:10.7554/elife.90254).
The source gives no read counts; variants with many changes may rest on few reads.

B1: LINE1-mini (parent)
chain: GGCAGAGCUCAACACAGCGUGGCAAAGUGGCUGUGGCUAGACUGCC

Variants of: B1
Test: self-cleavage, relative activity (ratio to wild type); higher = more cleavage; in vitro, sequencing; the parent is a self-cleaving ribozyme

Variant | self-cleavage
C13U A16C A26G | 0.07
C13U C18G G40A | 0.06
C13G A26U U28G U43A | 0.02
C13U G17A A26G C46U | 0.01
C13U A16U U20A G40U | 0.02
C13G U20A U38A | 0.07
C13U A14U U32A G35A | 0.03
C13G G21C C23G U28A | 0.09
C13G A14U C31G U34A G40U | 0.08
C13U A14U A25U U43G | 1.53
C13U A14U C18A C31A C45A | 0.04
C13U C23G G36A C42G | 0.08
C13U C31U A41C C46U | 0
C13G A16G C18G | 0.02
C13G G21C A26C U38G | 0.01
C13G G17A U20C | 0.02
C13U G19C G33C | 0.02
C13G C23G U28A | 0.03
C13U G22C C37U | 0.02
C13G U28G C46U | 0.03
C13G C15A C46A | 0.21

Variant | self-cleavage
C13G A26C G29U | 0.07
C13U G17U U20C G22U C31A G35A C46G | 0.6
C13G U20A A26C A39C | 0.06
C13U A14G G40C | 0.02
C13G A16G C23A | 0.17
C13U C23G C42U | 0.16
C13U G17C G30C G44A | 0.09
C13G G19U G21U | 0.03
C13G C15U A39U | 0.01
C13G A39G C42A | 0.08
C13U A16C A24C | 0.07
C13G G19C U28C U38A | 0.06
C13G G19C G36A | 0.03
C13U C23A G30U C31A G40A | 0.02
C13U A14G G22U C31A | 0.02
C13U C18U G29C G30U | 0.04
C13U C15U U38G | 0.04
C13G U34G U38C | 0.02
C13G A14C A41C | 0.08
C13U G22C U28C | 0.04
C13G G30C C31G G35C | 0.47

Variant | self-cleavage
C13U A14G G22C G33U | 0.02
C13G C23A G33U U38C | 0.07
C13U A24U G40A G44U | 0.01
C13U C31G U34A | 0.09
C13G G27U A39G | 0.1
C13G C15U C18U G22U A26G C46G | 0.02
C13U A16G G17C U34C C42A | 0.11
C13G G21A C31G G35A U38C | 0.03
C13G A24G A39G | 0.03
C13U C15A A16U G19A C45A | 0.04
C13G G17U G27U C31G G36A | 0.07
C13G A16G U20C U28A C31G | 0.02
C13U C15G U28G | 0.14
C13U A16C U20C U43C | 0.04
C13G G22U C37A | 0.45
C13G C15A C18G G40U | 0.03
C13G U43A G44C | 0.14
C13G C18A G21C C37A | 0.07
C13U C23G A24C | 0.21
C13U A26C G40C | 0.03
C13G A14C A16G G27C C42A | 0.02

Variant | self-cleavage
C13G C23A U28C G35C C37G | 0.01
C13U A16C C31A | 0.05
C13G A26G C31U C42A | 0.05
C13U G17U C31U | 0.01
C13U C18G G27A C31U | 0.01
C13U G19C G29C U34C C37U U38G | 0
C13U A16C G36A G40U | 0.06
C13U A26U G29A G40C | 0.01
C13G G17A G19C A41C C45U | 0.01
C13G C18A G19C U20G C23A U32C C37G | 0.02
C13G C15G G27C U34G U38A C45A | 0.03
C13G C42U C45G | 0.04
C13G A39G U43A G44A | 0.02
C13G G17A C23U G35C | 0.33
C13G C37A A39G | 0.02
C13U A14C C15A G27A | 0.12
C13U G19C A24U G27U | 0.06
C13U A24G C42A | 0.06
C13G G17C G29U G40U | 0.3
C13G U28C G40C | 0.03
